Data as given in the supplement of paper PMC8728848.
Some of the results follow.

Assays:
Experiment in all cases: glycan array binding signal (z-score within array); higher = stronger binding
Details in all cases: glycan notation: IUPAC condensed, linker removed
[1] = biological target: GalNAc3S(b1-4)[Fuc(a1-3)]GlcNAc
Outline: (§1)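 Negative Z-scores can be read as non-binding. The Z-score is calculated within each array and then averaged across arrays of one protein sequence at different concentrations or buffers and across linkers. Arrays, 3228 in all, were curated from the Consortium for Functional Glycomics database and kept only where the protein sequence was available.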

[2] = biological target: GalNAc4S6S(b1-4)GlcNAc
Outline: as §1

[3] = biological target: GalNAc6S(b1-4)GlcNAc
Outline: as §1

[4] = biological target: Glc(a1-4)Glc
Outline: as §1

[5] = biological target: Glc(a1-4)Glc(a1-4)Glc(a1-4)Glc
Outline: as §1

[6] = biological target: Glc(a1-6)Glc(a1-6)Glc
Outline: as §1

[7] = biological target: Glc(a1-6)Glc(a1-6)Glc(a1-6)Glc
Outline: as §1

[8] = biological target: Glc(b1-4)Glc
Outline: as §1

[9] = biological target: Glc(b1-6)Glc
Outline: as §1

[10] = biological target: GlcA(b1-3)Gal
Outline: as §1

[11] = biological target: GlcA(b1-3)GlcNAc
Outline: as §1

[12] = biological target: GlcA(b1-6)Gal
Outline: as §1

[13] = biological target: GlcA3S(b1-3)Gal(b1-4)GlcNAc(b1-2)Man
Outline: as §1

[14] = biological target: GlcA3S(b1-3)Gal(b1-4)GlcNAc(b1-3)Gal(b1-4)Glc
Outline: as §1

[15] = biological target: GlcNAc(a1-3)Gal(b1-4)GlcNAc
Outline: as §1

[16] = biological target: GlcNAc(a1-4)Gal(b1-3)GlcNAc
Outline: as §1

[17] = biological target: GlcNAc(a1-4)Gal(b1-4)GalNAc
Outline: as §1

[18] = biological target: GlcNAc(a1-4)Gal(b1-4)GlcNAc
Outline: as §1

[19] = biological target: GlcNAc(a1-4)Gal(b1-4)GlcNAc(b1-3)Gal(b1-4)Glc
Outline: as §1

[20] = biological target: GlcNAc(a1-4)Gal(b1-4)GlcNAc(b1-3)Gal(b1-4)GlcNAc
Outline: as §1

[21] = biological target: GlcNAc(a1-4)Gal(b1-4)GlcNAc(b1-3)Gal(b1-4)GlcNAc(b1-3)Gal(b1-4)GlcNAc
Outline: as §1

[22] = biological target: GlcNAc(a1-4)Gal(b1-4)GlcNAc(b1-3)Gal(b1-4)[Fuc(a1-3)]GlcNAc(b1-3)Gal(b1-4)[Fuc(a1-3)]GlcNAc
Outline: as §1

[23] = biological target: GlcNAc(a1-6)Gal(b1-4)GlcNAc
Outline: as §1

[24] = biological target: GlcNAc(b1-2)Gal(b1-3)GalNAc
Outline: as §1

[25] = biological target: GlcNAc(b1-2)Man(a1-3)[GlcNAc(b1-2)Man(a1-6)]Man(b1-4)GlcNAc(b1-4)GlcNAc
Outline: as §1

[26] = biological target: GlcNAc(b1-2)Man(a1-3)[GlcNAc(b1-2)Man(a1-6)]Man(b1-4)GlcNAc(b1-4)[Fuc(a1-6)]GlcNAc
Outline: as §1

[27] = biological target: GlcNAc(b1-2)Man(a1-3)[GlcNAc(b1-4)][GlcNAc(b1-2)Man(a1-6)]Man(b1-4)GlcNAc(b1-4)GlcNAc
Outline: as §1

[28] = biological target: GlcNAc(b1-2)Man(a1-3)[GlcNAc(b1-4)][GlcNAc(b1-2)Man(a1-6)]Man(b1-4)GlcNAc(b1-4)[Fuc(a1-6)]GlcNAc
Outline: as §1

[29] = biological target: GlcNAc(b1-2)[GlcNAc(b1-4)]Man(a1-3)[GlcNAc(b1-2)Man(a1-6)]Man(b1-4)GlcNAc(b1-4)GlcNAc
Outline: as §1

[30] = biological target: GlcNAc(b1-2)[GlcNAc(b1-4)]Man(a1-3)[GlcNAc(b1-4)][GlcNAc(b1-2)Man(a1-6)]Man(b1-4)GlcNAc(b1-4)GlcNAc
Outline: as §1

[31] = biological target: GlcNAc(b1-2)[GlcNAc(b1-4)]Man(a1-3)[GlcNAc(b1-4)][GlcNAc(b1-2)[GlcNAc(b1-6)]Man(a1-6)]Man(b1-4)GlcNAc(b1-4)GlcNAc
Outline: as §1

[32] = biological target: GlcNAc(b1-2)[GlcNAc(b1-4)]Man(a1-3)[GlcNAc(b1-4)][GlcNAc(b1-2)[GlcNAc(b1-6)]Man(a1-6)]Man(b1-4)GlcNAc(b1-4)[Fuc(a1-6)]GlcNAc
Outline: as §1

[33] = biological target: GlcNAc(b1-2)[GlcNAc(b1-6)]Man(a1-6)[GlcNAc(b1-2)Man(a1-3)]Man(b1-4)GlcNAc(b1-4)GlcNAc
Outline: as §1

[34] = biological target: GlcNAc(b1-2)[GlcNAc(b1-6)]Man(a1-6)[GlcNAc(b1-2)Man(a1-3)]Man(b1-4)GlcNAc(b1-4)[Fuc(a1-6)]GlcNAc
Outline: as §1

[35] = biological target: GlcNAc(b1-2)[GlcNAc(b1-6)]Man(a1-6)[GlcNAc(b1-4)][GlcNAc(b1-2)Man(a1-3)]Man(b1-4)GlcNAc(b1-4)GlcNAc
Outline: as §1

[36] = biological target: GlcNAc(b1-3)Fuc
Outline: as §1

[37] = biological target: GlcNAc(b1-3)Gal
Outline: as §1

[38] = biological target: GlcNAc(b1-3)Gal(b1-3)GalNAc
Outline: as §1

B1: ECL (Erythrina cristagalli), Q6YD91 (protein)
chain: VETISFSFSEFEPGNNDLTLQGAAIITQSGVLQLTKINQNGMPAWDSTGRTLYTKPVHIWDMTTGTVASFETRFSFSIEQPYTRPLPADGLVFFMGPTKSKPAQGYGYLGVFNNSKQDNSYQTLAVEFDTFSNPWDPPQVPHIGIDVNSIRSIKTQPFQLDNGQVANVVIKYDASSKILLAVLVYPSSGAIYTIAEIVDVKQVLPEWVDVGLSGATGAQRDAAETHDVYSWSFHASLPETND
**Q.** For B1, which “glycan array binding signal (z-score)” value [1] is on record?
**A.** Its value is -0.275.

**Q.** What about the “glycan array binding signal (z-score)” value [2] of the same binder?
**A.** Its value is -0.57.

**Q.** And the “glycan array binding signal (z-score)” value [3]?
**A.** Its value is -0.442.

**Q.** And the “glycan array binding signal (z-score)” value [4]?
**A.** The value was -0.188.

**Q.** What about the “glycan array binding signal (z-score)” value [5] of the same binder?
**A.** Its value is -0.257.

**Q.** And the “glycan array binding signal (z-score)” value [6]?
**A.** The value was -0.235.

**Q.** What about the “glycan array binding signal (z-score)” value [7] of the same binder?
**A.** Its value is -0.195.

**Q.** And the “glycan array binding signal (z-score)” value [8]?
**A.** Its value is -0.25.

**Q.** And the “glycan array binding signal (z-score)” value [9]?
**A.** Its value is -0.304.

**Q.** And the “glycan array binding signal (z-score)” value [10]?
**A.** Its value is -0.37.

**Q.** What about the “glycan array binding signal (z-score)” value [11] of the same binder?
**A.** Its value is -0.235.

**Q.** What about the “glycan array binding signal (z-score)” value [12] of the same binder?
**A.** The value was -0.139.

**Q.** What about the “glycan array binding signal (z-score)” value [13] of the same binder?
**A.** Its value is -0.385.

**Q.** What about the “glycan array binding signal (z-score)” value [14] of the same binder?
**A.** Its value is -0.219.

**Q.** What about the “glycan array binding signal (z-score)” value [15] of the same binder?
**A.** The value was -0.366.

**Q.** And the “glycan array binding signal (z-score)” value [16]?
**A.** Its value is -0.381.

**Q.** And the “glycan array binding signal (z-score)” value [17]?
**A.** Its value is -0.069.

**Q.** And the “glycan array binding signal (z-score)” value [18]?
**A.** Its value is -0.282.

**Q.** What about the “glycan array binding signal (z-score)” value [19] of the same binder?
**A.** Its value is -0.357.

**Q.** And the “glycan array binding signal (z-score)” value [20]?
**A.** The value was -0.028.

**Q.** And the “glycan array binding signal (z-score)” value [21]?
**A.** The value was -0.013.

**Q.** What about the “glycan array binding signal (z-score)” value [22] of the same binder?
**A.** The value was 0.089.

**Q.** And the “glycan array binding signal (z-score)” value [23]?
**A.** The value was -0.358.

**Q.** What about the “glycan array binding signal (z-score)” value [24] of the same binder?
**A.** The value was -0.238.

**Q.** What about the “glycan array binding signal (z-score)” value [25] of the same binder?
**A.** Its value is -0.327.

**Q.** And the “glycan array binding signal (z-score)” value [26]?
**A.** The value was -0.131.

**Q.** What about the “glycan array binding signal (z-score)” value [27] of the same binder?
**A.** The value was -0.432.

**Q.** What about the “glycan array binding signal (z-score)” value [28] of the same binder?
**A.** Its value is -0.165.

**Q.** What about the “glycan array binding signal (z-score)” value [29] of the same binder?
**A.** The value was -0.158.

**Q.** And the “glycan array binding signal (z-score)” value [30]?
**A.** Its value is -0.235.

**Q.** What about the “glycan array binding signal (z-score)” value [31] of the same binder?
**A.** Its value is -0.239.

**Q.** And the “glycan array binding signal (z-score)” value [32]?
**A.** Its value is -0.602.

**Q.** What about the “glycan array binding signal (z-score)” value [33] of the same binder?
**A.** Its value is -0.379.

**Q.** And the “glycan array binding signal (z-score)” value [34]?
**A.** Its value is -0.15.

**Q.** What about the “glycan array binding signal (z-score)” value [35] of the same binder?
**A.** Its value is -0.424.

**Q.** And the “glycan array binding signal (z-score)” value [36]?
**A.** The value was -0.462.

**Q.** What about the “glycan array binding signal (z-score)” value [37] of the same binder?
**A.** The value was -0.286.

**Q.** And the “glycan array binding signal (z-score)” value [38]?
**A.** Its value is -0.23.
